Reference: PubChem BioAssay AID485281 (National Center for Advancing Translational Sciences (NCATS), 2010)
Among all 350,000 compounds or so, about 260 (0.074%) were called active. Inconclusive results, whose numbers are uncertain, are shown with a selection of clear calls. Calls come from the whole dose curve; as a rule, active = well fitted inhibition curve with a large enough effect; inconclusive = small, poorly fitted or top-dose-only effect; inactive = no such curve, though single readings can be large or run the other way. Where the call is inconclusive, the potency comes from a doubtful curve fit.

Molecular target: Ferritin light chain (Equus caballus) (UniProt P02791)
Chain of UniProt P02791 (P02791 whole entry, looked up): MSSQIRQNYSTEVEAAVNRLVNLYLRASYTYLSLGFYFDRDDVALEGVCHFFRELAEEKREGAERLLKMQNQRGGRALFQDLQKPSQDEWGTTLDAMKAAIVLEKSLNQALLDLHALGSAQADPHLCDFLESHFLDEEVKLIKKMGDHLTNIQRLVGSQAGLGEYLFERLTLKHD
Assay: qHTS Assay for Identification of Novel General Anesthetics; note: nearly all actives have a fitted effect of over 20% in size
Conditions: apoferritin/1-aminoanthracene competitive binding, fluorescence; activity change, negative = displacement: at 77.5 µM (top of the series)
In short: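 Steps: apoferritin (10 uM) was premixed with half-saturated 1-AMA in PBS, compounds were pin-transferred, plates stood 10 min at room temperature, fluorescence was read at 380/535 nm, and curves were fitted with a Hill equation.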
% is set by controls: 0 for no effect and ±100 for the full control effect; potency is the fitted concentration of half-maximal effect; tags give direction and shape of the fitted curve.

Structure (SMILES)	Potency	activity change, negative = displacement
CC1CCCN(C(=O)CCCn2c(=S)[nH]c3ccccc3c2=O)C1 (stereo unspecified)	inconclusive: 28.2 µM [inhibitor, single point]	
Cc1ccc2cc3cc(C(=O)N4CCCCC4C)oc3nc2c1 (stereo unspecified)	inconclusive: 31.6 µM [inhibitor, single point]	
O=C1c2ccccc2NC(c2ccccc2O)N1O (stereo unspecified)		inactive: 4.19%
Cc1cccc(C(=O)NCc2nnc3c4ccccc4c(-c4ccccc4)nn23)c1		inactive: 5.42%
Cc1cccc(C(=O)NC(=S)Nc2ccc(Cc3ccncc3)cc2)c1	inconclusive: 28.2 µM [inhibitor, partial curve]	
CN(C)C(CNC(=O)c1cnc(Cl)c(Cl)c1)c1ccccc1 (stereo unspecified)		inactive: -5.02%
CCN(Cc1ccccc1)c1ncnc2c1cnn2-c1ccc(F)cc1		inactive: -5.03%
Cc1ccc(S(=O)(=O)N(C)C)cc1NC(=O)C(C)NC(C)c1cccs1 (stereo unspecified)		inactive: -1.37%
COc1ccc(NC(=O)C2CCCN(c3ncnc4onc(C)c34)C2)cc1OC (stereo unspecified)		inactive: -9.28%
COc1ccccc1NC(=O)Cn1cnc2sc(C(=O)NCc3ccco3)c(C)c2c1=O	inconclusive: 25.1 µM [inhibitor, partial curve]	
COc1cccc(/C=N/Nc2snc(SC)c2C#N)c1O		inactive: -5.37%
Cc1ccc(Cn2c(SCc3ccc(C(=O)N4CCCCC4)cc3)nc3ccncc32)cc1	inconclusive: 20 µM [inhibitor, partial curve]	
Cc1ccc2nc(SCC(=O)Nc3nonc3N)[nH]c2c1	inconclusive: 25.1 µM [inhibitor, single point]	
COc1ccc(NC2=C(Cl)C(=O)N(c3ccccc3)C2=O)c(OC)c1	inconclusive: 31.6 µM [inhibitor, partial curve]	
ClC(Br)=C(n1cnc2ccccc21)n1cnc2ccccc21		inactive: 0.812%
COC(=O)Cc1csc(Nc2ccc(F)c(Cl)c2)n1	inconclusive: 25.1 µM [inhibitor, partial curve]	
Oc1ccc2c(c1)OC(c1ccc(O)c(O)c1)C(O)C2 (stereo unspecified)	inconclusive: 25.1 µM [inhibitor, partial curve]	
C/C(=N\Nc1ncc(Cl)cc1Cl)c1cccs1	inconclusive: 28.2 µM [inhibitor, single point]	
Oc1ccccc1-c1cc(-c2ccco2)[nH]n1	inconclusive: 28.2 µM [inhibitor, partial curve]	
COC(=O)CSc1nnc(COc2ccc3ccccc3c2)o1	inconclusive: 14.1 µM [inhibitor, partial curve]	
CC(C)[C@@H](C(=O)NC1CCN(Cc2ccccc2)CC1)N1C(=O)N2CCc3c([nH]c4ccccc34)[C@@]2(C)C1=O	inconclusive: 12.6 µM [inhibitor, partial curve]	
CCC(=O)N1CCc2cc(Br)cc(S(=O)(=O)Nc3ccccc3C(=O)OC)c21	inconclusive: 4.47 µM [inhibitor, full curve]	

Structure (SMILES)	Potency	activity change, negative = displacement
COc1cc(OC)c(NC(=O)c2cnn(-c3ccccc3)c2-n2cccc2)cc1Cl		inactive: -13.1%
COc1ccc2c(=O)c3c(=O)n(Cc4ccco4)c(-c4ccccc4)nc3oc2c1	inconclusive: 14.1 µM [inhibitor, partial curve]	
Cc1c([N+](=O)[O-])cc(C(=O)NCc2ccc(F)cc2)cc1[N+](=O)[O-]	inconclusive: 20 µM [inhibitor, partial curve]	
C=CCC(=O)OCC(=O)Nc1ccc(Cl)cn1	inconclusive: 50.1 µM [inhibitor, single point]	
CC(NC(=O)COC(=O)c1cc(Cl)nc(Cl)c1)c1ccccc1 (stereo unspecified)	inconclusive: 25.1 µM [inhibitor, single point]	
COc1ccc(Oc2ccccc2/C=N/O)cc1	inconclusive: 35.5 µM [inhibitor, partial curve]	
Cc1ccc(C)c(N2CCN(S(=O)(=O)c3c(C(=O)N4CCC(C)CC4)c(C)n(C)c3C)CC2)c1	inconclusive: 44.7 µM [inhibitor, partial curve]	
Cc1csc(SCC(=O)Nc2cccc(S(=O)(=O)N3CCCC3)c2)n1	inconclusive: 31.6 µM [inhibitor, single point]	
Cc1ccc(CSc2nc3ccccc3c(=O)[nH]2)cc1	inconclusive: 6.31 µM [inhibitor, full curve]	
Cc1ccc(C)c(CSC2=NCCN2C(=O)c2cccs2)c1	inconclusive: 28.2 µM [inhibitor, partial curve]	
Cc1cc(S(=O)(=O)N2CCCCCC2)c(Cl)cc1Cl	inconclusive: 15.8 µM [inhibitor, partial curve]	
COc1ccc(CC(=O)Nc2ccc(S(=O)(=O)N(C)C)cc2)cc1OC	inconclusive: 35.5 µM [inhibitor, single point]	
CCCOc1ccc(C(=O)NNC(=S)NC(=O)c2ccco2)cc1		inactive: -0.154%
O=c1[nH]c2ccc(Cl)cc2c(-c2ccccc2)c1SC(=S)N1CCOCC1	inconclusive: 12.6 µM [inhibitor, partial curve]	
O=C(COC(=O)Cn1cnc2ccccc21)NCCC1=CCCCC1	inconclusive: 35.5 µM [inhibitor, partial curve]	
Cc1nn(-c2ccccc2)c(N)c1N=Nc1cccnc1	inconclusive: 50.1 µM [inhibitor, single point]	
CC(C)(C)c1cc(CN2CCCCC2)cc(C(C)(C)C)c1O	inconclusive: 44.7 µM [inhibitor, single point]	
COc1ccc(C(=O)c2c(NC(C)=O)sc3c2CCN(C(=O)OC(C)(C)C)C3)cc1	inconclusive: 35.5 µM [inhibitor, single point]	
O=C(N/N=C/c1cccc(O)c1)c1ccc(COc2ccccc2Br)cc1	inconclusive: 15.8 µM [inhibitor, partial curve]	
Cc1cccc(NC(=O)CSCc2c(C)noc2C)c1C	inconclusive: 31.6 µM [inhibitor, partial curve]	
C/C(=N\Nc1ccc([N+](=O)[O-])cc1[N+](=O)[O-])C(C)C(C)C (stereo unspecified)	inconclusive: 12.6 µM [inhibitor, partial curve]	
CCSc1ccc(-c2cccc([N+](=O)[O-])c2)nn1	inconclusive: 17.8 µM [inhibitor, partial curve]	

Structure (SMILES)	Potency	activity change, negative = displacement
O=C(c1ccc(COc2ccc(Br)cc2)o1)N1N=C(C(F)F)CC1(O)C(F)F (stereo unspecified)	inconclusive: 50.1 µM [inhibitor, single point]	
CCOC(=O)C1(Cc2cccc(Cl)c2)CCCN(C(=O)C(C)(C)C)C1 (stereo unspecified)	inconclusive: 15.8 µM [inhibitor, partial curve]	
CC12CCC(=O)N1C(C(=O)OCc1c(Cl)cccc1Cl)CS2 (stereo unspecified)	inconclusive: 50.1 µM [inhibitor, single point]	
CC(Sc1ccc2c(c1)OCCO2)C(=O)Nc1ccc2c(c1)OCO2 (stereo unspecified)	inconclusive: 31.6 µM [inhibitor, single point]	
CCC(C)(C)NC(=O)C(c1cccn1C)N(C(=O)Cn1nnc2ccccc21)c1ccccc1OC (stereo unspecified)	inconclusive: 56.2 µM [inhibitor, single point]	
CCCc1nnc2n1N=C(c1ccc(C)cc1)CS2	inconclusive: 35.5 µM [inhibitor, partial curve]	
O=C(CN1C(=O)NC2(CCCC2)C1=O)NCCC1=CCCCC1	inconclusive: 39.8 µM [inhibitor, single point]	
COC(=O)CSc1nnc(COc2cccc3ccccc23)o1	inconclusive: 39.8 µM [inhibitor, partial curve]	
COc1ccccc1NS(=O)(=O)c1cc(C(=O)NCc2ccco2)ccc1C	inconclusive: 35.5 µM [inhibitor, single point]	
Cn1c(=O)c2sccc2n2c(CCCC(=O)Nc3ccc(Oc4ccccc4)cc3)nnc12	inconclusive: 50.1 µM [inhibitor, single point]	
O=C(NCC1(N2CCOCC2)CCCCC1)c1ccc(Cl)c(S(=O)(=O)NCc2ccco2)c1	inconclusive: 28.2 µM [inhibitor, single point]	
C#CCn1c(=NC(=O)c2ccc(S(=O)(=O)N3CCCc4ccccc43)cc2)sc2cc(S(N)(=O)=O)ccc21		inactive: -16.9%
COc1cc(C2NC(=O)NC(C)=C2C(=O)OC2CCCCC2)cc(Br)c1O (stereo unspecified)	inconclusive: 35.5 µM [inhibitor, partial curve]	
COc1ccccc1C(=O)OCC(=O)Nc1ccc(OC(F)F)cc1	inconclusive: 20 µM [inhibitor, partial curve]	
COc1ccc(C(=O)c2cn(Cc3ccccc3F)c3cc4c(cc3c2=O)OCCO4)cc1OC	inconclusive: 14.1 µM [inhibitor, partial curve]	
CCc1[nH]nc(C(=O)N2CCCC(C(=O)c3cccc(C(F)(F)F)c3)C2)c1C (stereo unspecified)	inconclusive: 31.6 µM [inhibitor, partial curve]	
O=C(C1CCCCC1)N1CCCc2ccccc21	inconclusive: 56.2 µM [inhibitor, single point]	
CCN(CC)c1ccc(/C=C(/C#N)C(=O)NCc2ccccc2)o1	inconclusive: 25.1 µM [inhibitor, partial curve]	
CCc1ccc(S(=O)(=O)c2cn(Cc3ccccc3)c3cc(N4CCCC4)c(F)cc3c2=O)cc1		inactive: -11.7%
O=C(Nc1ccc(Oc2ccc(Cl)cc2)c(Cl)c1)c1cc(I)cc(I)c1O		inactive: -5.87%
OC1CCN(c2c3c(nc4cc(-c5cccc(F)c5)nn24)CCCC3)CC1		inactive: 42.4%
O=C(c1ccc(Oc2ccc(C(F)(F)F)cn2)cc1)N1CCN(c2ccccc2)CC1	inconclusive: 4.47 µM [inhibitor, full curve, poor fit]	
